# The supplement of paper PMC5499739
# Over roughly 16,000 sequences, “Z-score” has its median near -0.37; the highest 2% begin near 3.2. The list shows a part of the results.
# Tested on: RBM10 RRM1-ZnF (GST-tagged construct)
# Assay: RNAcompete 7-mer binding Z-score; higher = stronger binding preference
# Summary of the method: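 A designed pool of 241 399 RNAs, each up to 41 nt and transcribed from microarray-derived DNA templates, was used at 1.5 nmol with 20 pmol of GST-tagged RBM10 constructs. The mixture, in 1 ml Hepes pH 7.8 buffer with KCl, NaCl, glycerol, DTT, BSA and glutathione Sepharose beads, was held 30 min at 4°C and then washed four times for 2 min at 4°C. Bound RNA was read out by microarray hybridisation, and enrichment of each heptamer motif was scored as a one-sided Z-score over the probes carrying it.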
row,Sequence,RNAcompete 7-mer binding Z-score
1,GCUAUCG,-0.47
2,UCAACUC,-0.733
3,AAGAUAC,-0.318
4,GACGCCU,-0.73
5,CCAUCCG,-0.681
6,CUACUUG,-0.746
7,AAUCCCU,-0.704
8,GAUGUCG,0.0658
9,AGAUUGG,2.01
10,GUACGAU,0.0755
11,CUGCCUU,-0.831
12,CUCUGAA,-0.727
13,AUCCAGG,0.144
14,UCAAUGC,-0.636
15,AGCGAAC,-0.171
16,GGUUAAA,1.3
17,CAUCACC,-0.795
18,GUGGCAG,1.48
19,ACCCGGG,0.0398
20,UACACAC,-0.552
21,CCCCAUU,-0.837
22,UCAGGCC,-0.383
23,UGCUCUU,-0.815

row,Sequence,RNAcompete 7-mer binding Z-score
1,UAGCCCA,-0.691
2,GCGGAAU,1.29
3,UUCUAUC,-0.841
4,UGGCAUA,0.257
5,UUAAGAC,-0.578
6,AUCCUGU,-0.883
7,GCGAGUC,0.069
8,CCAGCCC,-0.0934
9,GAUGCCG,-0.246
10,ACGACCU,-0.873
11,UCCGCAU,-0.74
12,CUGGUGG,1.64
13,UGCAUGC,-0.639
14,CCGAGGU,0.634
15,AACUAUC,-0.724
16,AUAUGCA,-0.0609
17,GCGGAUC,0.813
18,AGGAUUG,1.5
19,GAGUUAC,-0.123
20,GCGGUAC,0.28
21,CAACGUC,-0.516
22,UCCGACU,-0.818
23,ACCUCUA,-0.795

row,Sequence,RNAcompete 7-mer binding Z-score
1,AGUAACA,-0.0285
2,UAGUUGU,-0.435
3,CACUAGC,-0.633
4,UAUAACG,-0.597
5,GAAUGGA,4.02
6,AGGCCUG,-0.581
7,AUGUGCA,0.313
8,AAAAACA,-0.136
9,CUUUAUC,-0.88
10,GUCAGAC,-0.392
11,CUUGUGA,-0.662
12,AACAACG,-0.347
13,AAGAGAA,0.391
14,GUACUUU,-0.883
15,UACUAAU,-0.587
16,GUGCUGG,1.83
17,UCCUGAC,-0.841
18,CACGUAG,0.0398
19,CACAUCG,-0.558
20,GCCGCGC,-0.35
21,AAGAUCG,-0.0837
22,UAAGAAG,0.735
23,UUGUCCG,-0.623

row,Sequence,RNAcompete 7-mer binding Z-score
1,UGGGGCU,2.3
2,AUGUGUA,0.608
3,GCACCAA,-0.425
4,GCGCUGG,0.735
5,GUAAUGA,0.173
6,AACCCCG,-0.506
7,UACGGAG,0.93
8,UCCCGCU,-0.668
9,CAGAACU,-0.483
10,CUGCCCU,-0.571
11,AGGUGUG,2.53
12,CGGCACU,-0.292
13,GAACACU,-0.438
14,AUUUUAC,-0.902
15,GUUUGCC,-0.214
16,UGUUAGU,-0.272
17,AUAUGAC,-0.357
18,GAAGGCU,0.621
19,CACGGCA,0.00404
20,GUUUGGC,0.534
21,GAGCAUC,-0.22
22,CGAACGU,-0.373
23,GCAGUUU,-0.519
